{"source": "paper PMC12136788", "binders": {"B1": {"name": "chr1:23854467:23854568:-|CDS|ENSG00000179163|unk|total|mutant (ssRNA)", "RNA": "GGGAGUUCUACAGUCCGACGAUCAAGUCAAGUGGUUUUACUCCUCAUGACCAAAUAUUCUUUCCCUCCUCCGGAUGAGGUGGCCGUAAAUGACCGAUGGGGUCAGAACUGUUCCUGUCACCAUGGAGGAUACUAUAACUGUGACAACAGAGGAUUGAGCAUCA"}, "B2": {"name": "chr16:58599380:58599482:-|5pUTR|ENSG00000125107|unk|FALSE|unique (ssRNA)", "RNA": "GGGAGUUCUACAGUCCGACGAUCCAGAACAGAGUAAGACCCCUGGUAAAGAAGAACUGAAGAUAUUAUACAGAUACCAGAUAUAGCCUAAUUACAAAGAAAGCAUUAACCUGCCUCUGAGGUGACUAAAGGGGAAUAAUGGUGCAACAGAGGAUUGAGCAUCA"}, "B3": {"name": "chr6:39540002:39540221:-|CDS|ENSG00000164627|control|control|control (ssRNA)", "RNA": "GGGAGUUCUACAGUCCGACGAUCCCACUUGGCUGGCAUGGAUAGACGUGAAUUCAGACAGUCCCAGAGCCCACCCUUCCGCCUAGGAAACCCAGAAGAAGGUCAAAGAAUGCGACUAUCCUCAGCUCCCUCACAGGCCCAGGACAACAGAGGAUUGAGCAUCA"}, "B4": {"name": "chr10:128103381:128103482:-|CDS|ENSG00000148773|msi1|FALSE|unique (ssRNA)", "RNA": "GGGAGUUCUACAGUCCGACGAUCAACUGGCAGCAGGAGACGGCCAAGAGCACCCAGGGAAAGUGCCCAAGCCAUAGAAGACCUAGCUGGCUUCAAAGACCCAGCAGCAGGUCACACUGAAGAAUCAAUGACUGAUGACAAAACCAACAGAGGAUUGAGCAUCA"}, "B5": {"name": "chr3:100713726:100713879:+|CDS|ENSG00000114354|unk|FALSE|unique (ssRNA)", "RNA": "GGGAGUUCUACAGUCCGACGAUCACUUGGGGAGGAUAUUCGGCGAAUUCCUAUUCAUAAUGAAGAUAUUACUUAUGAUGAAUUAGUGCUAAUGAUGCAACGAGUUUUCAGAGGAAAACUUCUGAGUAAUGAUGAAGUAACAAUCAACAGAGGAUUGAGCAUCA"}, "B6": {"name": "chr1:235182574:235182675:-|CDS|ENSG00000054267|unk|total|mutant (ssRNA)", "RNA": "GGGAGUUCUACAGUCCGACGAUCUUUGACCAACAACAGAAAUGAUCUUAUUUCAAAGGAGGAACAGAACAGUUCAUCUUUGCCCGAAGAAAACAAAGUUCAUGCAGAUUUGGUAAUAUCCAAACCAGUGUCAAAAUCUCCAGACAACAGAGGAUUGAGCAUCA"}, "B7": {"name": "ENSG00000136451:be:win_1701|3pUTR|ENSG00000136451|bound_else_gene|NA|bound_elsewhere_windowed (ssRNA)", "RNA": "GGGAGUUCUACAGUCCGACGAUCUUUCUCCAAUUUGGCUGGGAUUAUUCAAAGUAGGGUGUGUAUGUAACUUAUCACUGGACCACUUUAGUUUAAUCAGAAAUUCCUUUUAGCUGACAACAUUGCUUAAACAGGAUAGUAGUUCAACAGAGGAUUGAGCAUCA"}, "B8": {"name": "chr14:106235063:106235368:-|CDS|ENSG00000211947|control|control|control (ssRNA)", "RNA": "GGGAGUUCUACAGUCCGACGAUCUGGGUCCGCCAGGCUCCAGGGAAGGGGCUGGAGUGGGUCUCAUCCAUUAGUAGUAGUAGUAGUUACAUAUACUACGCAGACUCAGUGAAGGGCCGAUUCACCAUCUCCAGAGACAACGCCCAACAGAGGAUUGAGCAUCA"}, "B9": {"name": "chr3:149369464:149369565:-|3pUTR|ENSG00000169908|msi1_unk|FALSE|overlapping (ssRNA)", "RNA": "GGGAGUUCUACAGUCCGACGAUCAAAUAACAUUCCAAUCACUAUUGUAUAUAUGUGCAUGUAUUUUUUAAAUUAAAGAUGUCUAGUUGCUUUUUAUAAGACCAAGAAGGAGAAAAUCCGACAACCUGGAAAGAUUUUUGUUUUCAACAGAGGAUUGAGCAUCA"}, "B10": {"name": "chr13:24435137:24435247:-|CDS|ENSG00000102699|unk|FALSE|unique (ssRNA)", "RNA": "GGGAGUUCUACAGUCCGACGAUCAAACCAACAGCAACUGAACCACUAUUUAAGAAAGUCAGUCCAUGGGAAACAUCUACUUCUAGCUUUUUUCCUAUUUUGGCUCCGGCCGUUGGUUCCUAUCUUCCCCCGACUGCCCGCGCUCAACAGAGGAUUGAGCAUCA"}, "B11": {"name": "chr12:32755127:32755228:-|CDS|ENSG00000139131|unk|FALSE|unique (ssRNA)", "RNA": "GGGAGUUCUACAGUCCGACGAUCCUUCUAUUACCUCUUCCAGCGUUAUGGAUGCAGGGUCCAGCUGGGCGGAUCUGAUCAACUAGGCAACAUCAUGUCCGGAUAUGAGUUCAUCAACAAGUAAGUGCCUUUAAACCUUGGGGACAACAGAGGAUUGAGCAUCA"}, "B12": {"name": "chr2:206311781:206311882:+|3pUTR|ENSG00000204186|unk|total|mutant (ssRNA)", "RNA": "GGGAGUUCUACAGUCCGACGAUCCCGUGUUCCGAGUCCUUUCAUUUUAAGAUUCAGAAACAGCCUUUGUCCAACAUUUUCUGCCGAAGAACUUCAUCUUAAUUUAUGUCACAAAAUAAUUCCGCACCGUAUACCGAAUUUUGUCAACAGAGGAUUGAGCAUCA"}, "B13": {"name": "chr6:125978377:125978478:+|3pUTR|ENSG00000111911|unk|FALSE|unique (ssRNA)", "RNA": "GGGAGUUCUACAGUCCGACGAUCAAUUUUGCCUCUAAUAACAUAAAGGGGGAAGAAACAUAAAGUGGUUCUCUUAAUAAAACUAGCAGAAAAUGUUGCUUUAUGGCAUGUUUUUGUAUCAAAGAGAAAUCAGAGGUUAAACUUCAACAGAGGAUUGAGCAUCA"}, "B14": {"name": "chr16:30351896:30351997:-|3pUTR|ENSG00000169217|unk|FALSE|unique (ssRNA)", "RNA": "GGGAGUUCUACAGUCCGACGAUCCUGGCACCCUCCACCUCCACGCCCCACCAGCAUUGCCUUACGCCUCCCUUGCCCCACGUUAGAUGGUUUCUUCCGGUUUUGCACUCUGGCUGCCCCUUGGAGUCUCCUGGGGAGCUGUAACAACAGAGGAUUGAGCAUCA"}, "B15": {"name": "chr17:19383441:19384461:-|three_prime_utr|ENSG00000166482|control|control|control (ssRNA)", "RNA": "GGGAGUUCUACAGUCCGACGAUCUACACCUGAAGUUACACUGCCAGCAGUUCCCCAGGCCUCUUCCGAGAGGCACAUGGUUCUAGCCUGGACCUGGCUGGGCUCCAUGAGAAUGAGUUGCCUCCAACCUGUCCCAACAGCUGACAACAGAGGAUUGAGCAUCA"}, "B16": {"name": "chr10:87753454:87753555:-|3pUTR|ENSG00000138138|msi1|FALSE|bound_elsewhere (ssRNA)", "RNA": "GGGAGUUCUACAGUCCGACGAUCCGUUUAAUGUGAAUUAUAUGUGAAUUUUUUUCAAAAUUUUACUAACCAGAAUUCUGUUAUAGGCACCUAACCACGCAGCAUGAGGAAAACGGCACAACACAAUCUUGAGGUGCCUUCUGACAACAGAGGAUUGAGCAUCA"}, "B17": {"name": "chr18:62902975:62903076:+|CDS|ENSG00000081913|unk|total|mutant (ssRNA)", "RNA": "GGGAGUUCUACAGUCCGACGAUCAGUGGACUUUCUACAGCAUGUUACUCAGCUUGACCUACGAGACAAUAAGCUUGGUGAUCCCGAUGCUAUGAUUUUCAACAACAUUGAAGUUUUACACUGUGAAAGGAAUCAACUGGUCACCAACAGAGGAUUGAGCAUCA"}, "B18": {"name": "chr12:293013:293114:-|CDS|ENSG00000073614|unk|FALSE|bound_elsewhere (ssRNA)", "RNA": "GGGAGUUCUACAGUCCGACGAUCACUAAAAGUGAAAGGAAAGGACUCUUCAGAGAAGAAACGGAAACGGAAGCUAGAAAAGGUAGAGCAACUUUUUGGAGAAGGAAAACAGAAGUCCAAGGAGUUAAAGAAAAUGGACAAACCCAACAGAGGAUUGAGCAUCA"}, "B19": {"name": "chr8:9779869:9779970:+|3pUTR|ENSG00000173273|msi1|FALSE|unique (ssRNA)", "RNA": "GGGAGUUCUACAGUCCGACGAUCGGAAUUUCUAGCUUUUCAAGCAGCAUAAGUAGAAUCAACAUUAGGAUGUUUUCAUGAAAUAGCAUCCUUAUACUUCUUUGAGCUUGAUGUUAGUGGCUAGACUGAUUUCCCUUUGCUCUCCAACAGAGGAUUGAGCAUCA"}, "B20": {"name": "ENSG00000142156:stop:overlap|stop_codon|ENSG00000142156|stop_codon|NA|stop_codon (ssRNA)", "RNA": "GGGAGUUCUACAGUCCGACGAUCACCAGGCCCUGCUCCGCGGUGUCUUCCACCAGACAGUCUCCAGGAAGGUGGCGCUGGGCUAGCCCACCCUGCACGCCGGCACCAAACCCUGUCCUCCCACCCCUCCCCACUCAUCACUAACAACAGAGGAUUGAGCAUCA"}, "B21": {"name": "chr14:103519669:103519777:-|3pUTR|ENSG00000166165|unk|FALSE|unique (ssRNA)", "RNA": "GGGAGUUCUACAGUCCGACGAUCCUGAUGUUCGCCGUCUGGCGAGCCCUUAGCCUUGCUGUAGAGACUUCCGUCACCCUUGGUAGAGUUUAUUUUUUUGAUGGCUAAGAUACUGCUGAUGCUGAAAUAAACUAGGGUUUUGGCCAACAGAGGAUUGAGCAUCA"}, "B22": {"name": "chr9:113264340:113264441:+|3pUTR|ENSG00000136868|msi1|FALSE|unique (ssRNA)", "RNA": "GGGAGUUCUACAGUCCGACGAUCAAAGUCUGCAUUUGAUAUAAUGCCUUAAUUACUGGGUCUACAAUUAAUGUUGACUGUUUUAGAUUGUAAGCUCCUGGAGAGCAGUAUUGCUGUAGUAGGAAUGUUUUAACAGUGUCAUAUCAACAGAGGAUUGAGCAUCA"}}, "note": "Some of the results follow."}
{"biological_target": "MSI1 full-length (mouse, UniProt Q61474 1-362)", "sequence (Q61474 whole entry)": "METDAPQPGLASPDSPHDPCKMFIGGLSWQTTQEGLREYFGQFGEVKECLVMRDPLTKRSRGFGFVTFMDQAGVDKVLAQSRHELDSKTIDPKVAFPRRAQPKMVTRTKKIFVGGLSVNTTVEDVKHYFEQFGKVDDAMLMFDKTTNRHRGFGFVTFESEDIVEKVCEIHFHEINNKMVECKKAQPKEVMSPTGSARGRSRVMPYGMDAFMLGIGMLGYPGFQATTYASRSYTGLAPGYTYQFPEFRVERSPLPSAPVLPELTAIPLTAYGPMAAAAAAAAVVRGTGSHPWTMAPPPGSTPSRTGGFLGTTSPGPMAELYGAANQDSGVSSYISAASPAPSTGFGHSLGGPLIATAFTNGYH", "test": "nsRBNS (natural sequence RNA bind-n-seq); RBNS binding buffer (assumed for nsRBNS): 25 mM Tris pH 7.5, 150 mM KCl, 3 mM MgCl2, 0.01% Triton X-100, 500 ug/ml BSA, 20 U/ml SUPERase-In, 4 C; UNK is unkempt and MSI1 is Musashi-1; names of the RNAs are library labels; protein concentration not given here; high values mean tight binding", "units": {"binding signal": "enrichment R"}}
{"binder": "B1", "binding signal": 0.336}
{"binder": "B2", "binding signal": 2.04}
{"binder": "B3", "binding signal": 0.494}
{"binder": "B4", "binding signal": 0.443}
{"binder": "B5", "binding signal": 0.88}
{"binder": "B6", "binding signal": 0.165}
{"binder": "B7", "binding signal": 2.72}
{"binder": "B8", "binding signal": 2.08}
{"binder": "B9", "binding signal": 4.46}
{"binder": "B10", "binding signal": 0.454}
{"binder": "B11", "binding signal": 0.398}
{"binder": "B12", "binding signal": 0.669}
{"binder": "B13", "binding signal": 0.335}
{"binder": "B14", "binding signal": 0.706}
{"binder": "B15", "binding signal": 0.497}
{"binder": "B16", "binding signal": 0.398}
{"binder": "B17", "binding signal": 0.227}
{"binder": "B18", "binding signal": 0.889}
{"binder": "B19", "binding signal": 0.275}
{"binder": "B20", "binding signal": 0.343}
{"binder": "B21", "binding signal": 0.356}
{"binder": "B22", "binding signal": 2.88}
